Experimental data: ChEMBL document CHEMBL4888484, “Replenishing the malaria drug discovery pipeline: Screening and hit evaluation of the MMV Hit Generation Library 1 (HGL1) against asexual blood stage Plasmodium falciparum ,using a nano luciferase reporter read-out” (2022)
Hit rate of the full screen: of about 4,800 compounds, about 410 (8.5%) showed an effect of 50% or more. This is one part of the list.

system: Plasmodium falciparum; assay: Confirmatory screen in NF54 pLDH assay, in single point, at 2uM, 72h; format: functional, Erythrocyte; conditions: timepoint 72 hour

Compound	% Inhibition [%]
CCCCOc1ncccc1CNC(=O)N1CCn2nc(C)nc2C1	-1
Cc1nsc(N2CCN(CC(C)O)C(C)C2)n1 (stereo not given)	1
Cc1ncsc1CNc1nnc(CC(C)(C)C)o1	3
CCOC(=O)C(NC(=O)Cc1c(Cl)cccc1Cl)C(=O)OCC	5
CC1CCN(c2nccnc2Oc2ccc(C(=O)NCc3ccccc3Cl)cc2)CC1	48
COc1cccc2c(=O)c3c([nH]c12)CCN(CC(=O)NCc1ccccc1Cl)C3	37
CCOC(=O)c1cc(NC(=O)NCCS(C)(=O)=O)c(F)cc1C	-5
CCn1cc2c(n1)c(=O)n(Cc1ccc(C)cc1)c(=O)n2CC(=O)Nc1ccc(C)cc1C	-21
COc1cc(C)c2[nH]c3c(c(=O)c2c1)CN(CC(=O)Nc1ccc2c(c1)OCCO2)CC3	13
COc1ccc(S(=O)(=O)N(C2CCCCC2)C2CCCCC2)cc1	-11
CC1CCCCC1NC(=O)CN1CCN(Cc2cccc(Cl)c2)C1=O (stereo not given)	-4
CC(C)c1cccc(Nc2nc3ccncc3n(C(C)C)c2=O)c1	94
CC1CCN(C[C@H]2CCCCCN2C(=O)NCCc2ccccc2)CC1	40
Cc1cc(C)c(CNC(=O)c2c[nH]c3ncccc23)c(=O)[nH]1	4
Cc1occc1C(=O)NC1(c2ccccc2)CCOCC1	-6
Cc1nccc(NC(=O)C2CCC(F)(F)CC2)c1Cl	9
COc1cc(CNCc2ccccn2)ccc1OCc1ccc(Cl)cc1Cl	2
Cc1ccc(S(=O)(=O)Cc2nc3cc(C)c(C)cc3[nH]c2=O)cc1	2
COCCc1cc(NC(=O)Nc2sc(-c3ccccc3)nc2C)n(C)n1	16
COc1cccc(CCC(=O)N2CCN3CCC2C3)c1F (stereo not given)	-21
O=C1CCCN1CCc1nc(-c2cc(F)ccc2F)cs1	0
O=C(CN1CCN(Cc2ccccc2F)C1=O)NC1CCCCCCC1	-2
Cc1nn(-c2ccccn2)c(O)c1C(c1ccccc1)c1c(C)nn(-c2ccccn2)c1O	86
Clc1ccc(-c2onc3c2CCCC3)cc1	9
CC(C)(C)OC(=O)NCC1CCCCC1C(F)(F)F (stereo not given)	1
O=C(c1ccc(Cl)c(Cl)c1)N1CCCc2cc(S(=O)(=O)N3CCCC3)ccc21	-5
Cn1cc(Br)c(C(=O)N2c3ccnn3C(C(F)(F)F)CC2c2ccccc2)n1 (stereo not given)	10

Compound	% Inhibition [%]
Cc1cc(C)c2c(C(=O)N3CCN(C(=O)[C@H](C)O)CC3)cc(C3CC3)nc2c1	-11
CCOC(=O)c1nc[nH]c1-n1nc(C)cc1C	7
CCn1cc(S(=O)(=O)N2CC(Oc3cccc(-c4nc(C)no4)c3)C2)cn1	7
CCn1cc(C(=O)Nc2ccc(C(=O)N3CCCCC3)cc2)cn1	5
C[N+]12CCCCC1C(OC(=O)C1(c3ccccc3)CCCC1)CCC2 (stereo not given)	60
COc1cccc(-c2cc(C(=O)Nc3cc(Cl)ccc3C)c3c(C)nn(C)c3n2)c1	-12
Cc1cc(C)n(C(=O)Cn2nc(C(F)F)cc2C)n1	11
Cc1ccc(-n2nc(N3CCN(C(=O)Cc4ccc(F)cc4)CC3)ccc2=O)cc1	9
COC(=O)c1ncn2c1C(=O)N(Cc1ccccc1OC)[C@](C)(C(=O)NC1CCCCC1)C2	11
COc1ccc2cccc(NC(=O)c3cc(-c4cc(OC)c(OC)c(OC)c4)n[nH]3)c2n1	51
CC1(C2CCN(C(=O)c3c(Cl)cccc3Cl)CC2)OCCO1	4
COc1ccc(C(=O)Nc2ccc3c(c2)C(=O)Nc2cccnc2O3)cc1OC	26
c1ccc(C2(c3nnc(-c4ccncc4)o3)CCOCC2)cc1	4
Cc1c(S(=O)(=O)NCCn2nc(C(F)(F)F)cc2C)cnn1C	8
COCCCC(=O)Nc1cc(C)c(Br)cn1	8
CCCN1Cc2cccc(NS(=O)(=O)c3cc(C)ccc3Br)c2C1	5
O=C(NCCC1=CCCCC1)c1c(-c2ccccc2)nc2n1CCS2(=O)=O	-1
CC(C)[C@H](CN1CCOCC1)NC(=O)c1ncccn1	-1
CC(C)[C@@H]1CCc2ccccc2N1Cc1nc(N)nc(N(C)C)n1	6
CC1(C)CCc2ccccc2C1NC(=O)C1CC(=O)N(c2nccs2)C1 (stereo not given)	-6
CCc1ccccc1C(=O)NC[C@H]1CC[C@H](CN)CC1	6
CCOc1cc(Cl)c(Cl)c(C#N)c1OC(C)=O	6
O=C(Nc1ccccc1)c1ccc(Nc2ncc(-c3cccc(F)c3)cn2)cc1	-10
COc1ccc(CCNC(=O)c2cnn3c4c(cnc23)C[C@@H](C)CC4)cc1OC	4
N#CC1(c2ccccc2)c2ccccc2C(=O)c2ccccc21	-4
COCC[C@](C)(O)CNC(=O)Nc1ccccc1	5
CCCc1nc(CNc2cccc3c2N(C(C)=O)CC3)no1	-17

Compound	% Inhibition [%]
Cc1ccc(Cc2nc(N3CCCN(C(=O)CCc4ccccc4)CC3)c3cnn(-c4ccccc4)c3n2)cc1	10
Cc1ccn(-c2ccc(C(=O)NC3CCCC3)cn2)n1	-9
CC(C)(C)n1ncc2c1NC(=O)C[C@@H]2c1c(F)cccc1Cl	-19
CCN1C(=O)C[C@H](C(=O)Nc2cnc3ccccc3c2)[C@H]1c1nccn1CC	-7
COc1cc(-c2nc3ccccc3s2)ccc1OCc1cccc2ccccc12	0
Cc1c(Cl)cccc1C(=O)N1CCC[C@H](Cn2cncn2)C1	1
[O-]/[N+](=C\c1ccncc1)Cc1ccccc1	-11
C=CCOc1ccc(CN(C)S(=O)(=O)CC#N)cc1	9
CC(C)=C(F)C(=O)N1CC[C@H](CO)C[C@@H]1C	6
CCn1nccc1CNc1cc(Cl)cc2c1OCC2	-22
Cc1cccn2cc(CN(C)[C@H](c3ccccn3)C3CC3)nc12	4
CN1CCN(c2nc(O)c3c(n2)NC(=O)C[C@H]3c2c(F)cccc2F)CC1	0
Nc1c(-c2ccc(F)cc2)cnc2cc(-c3ccc(Cl)c(Cl)c3)nn12	12
O=C(CC1CCOCC1)NCc1ccccn1	-24
C[C@@H](C1CC1)N(C1CC1)S(=O)(=O)c1ccc(F)cc1F	4
CC1Cc2cc(-c3ccc(CNC(=O)C(C)(O)C4CC4)cc3)ccc2O1 (stereo not given)	6
O=C(NS(=O)(=O)C1CCOCC1)c1csc(-c2ccco2)n1	-10
Cc1ccc(CC(=O)N2C[C@H](c3ccccc3)C(c3ccc(Cl)cc3)=N2)cc1	9
CC[C@@H](CO)NCc1ccc(OC)cc1OC	4
N=C1CCCN1c1c(Cl)cccc1Cl	5
Cc1cccc(N2CCN(C(=O)CN3CCN(Cc4ccc(Cl)cc4)C3=O)C[C@@H]2C)c1	-6
Cc1ccsc1CN(C(=O)c1cccc[n+]1[O-])C(C)C	5
CCc1n[nH]c(=O)c(C(=O)Nc2cnc3[nH]nc(C)c3c2)c1CC	7
Nc1nonc1C(=O)N1CCN(C(=O)Nc2cccc(F)c2)CC1	-21
COc1ccc(OC)c(CNC(=O)c2ccc(Nc3ncc(-c4cccc(F)c4)cn3)cc2)c1	-4
Cc1nn(-c2ncc(C(F)(F)F)cc2Cl)c(=O)n1-c1cccc(Cl)c1	7
CCC(=O)N1CCN(c2nc3c(s2)C[C@@H](C(=O)Nc2cccc(Cl)c2)CC3)CC1	-23

Compound	% Inhibition [%]
COc1cc(F)c([C@H](C)NC(=O)N(C)Cc2ccco2)cc1OC	-1
Cc1nsc2ncn(C[C@H](O)COCc3ccco3)c(=O)c12	8
Clc1ccc(Cl)c(-c2ccc(CNCCOc3ccccn3)o2)c1	11
O=C(c1ccc(COc2ccc(Cl)cc2Cl)cc1)n1cc(Br)cn1	3
COCCOc1ccc2c(n1)CCN(C(=O)c1ccc(OC)cc1)C2	-8
COc1ccc(-n2nnnc2C2(N3CCOCC3)CCCC2)cc1OC	3
CN(CC(F)(F)F)S(=O)(=O)c1ccc(C(=O)O)cc1	4
CC[C@H](Nc1ccc(Cl)c(NC(C)=O)c1)C(=O)OC	-8
O=C(CN1CCC[C@H](O)C1)N(C1CCCCC1)C1CCCCC1	10
c1ccc2c(c1)ccc1oc(-c3ccn[nH]3)cc12	-3
Cc1cc(C(=O)N[C@H]2CCS(=O)(=O)C2)nc(N(C)C)n1	2
COc1cc(C(=O)Nc2scnc2C)cc(OC)c1OC	7
CN1CCC2C(CCN2C(=O)Nc2ccc(Cl)c(C(F)(F)F)c2)C1 (stereo not given)	13
Cc1cc(C(=O)NCCCN2CCCC2=O)nn1C(F)F	-10
c1ccc(NC(Nc2nnn[nH]2)=C(c2ccccc2)c2ccccc2)cc1	4
COCCCn1c(NS(=O)(=O)c2ccccc2)c(S(=O)(=O)c2ccc(C)cc2)c2nc3ccccc3nc21	49
CC(C)(C)OC(=O)NCc1ccccc1O	10
O=C(CN1C=CCC=C1c1nc(-c2ccc(Br)cc2)cs1)c1ccccc1	46
CC(C)(C)OC(=O)N1CCC2(CC1)NN=C1C=C(N3CCN(c4ccccc4F)CC3)N=CN12	-14
CCN(CC(=O)Nc1ccc2c(c1)OCCO2)C(=O)CCc1c(C)noc1Cl	5
CC[C@H]1Cn2c(C(=O)NCc3ccc(C)o3)cc3cccc(c32)O1	-21
CC(=O)N1CCC2(CC1)NN=C1C=CC(c3nc(C(C)(C)C)no3)=CN12	9
O=S(=O)(c1ccccc1Br)N1CC[C@H]1c1ccccc1	1
CCN(C(C)=O)c1nc(CN2CCc3cc(C)cc(C)c3C2)cs1	11
